Whole data set: some 33,000 sequences, median “E-score (-0.5 to 0.5)” near -0.032, cut for the highest 2% near 0.36. The list shows a part of the results.
Molecular target: T1, Sko1 (UniProt Q02100)
T1 sequence: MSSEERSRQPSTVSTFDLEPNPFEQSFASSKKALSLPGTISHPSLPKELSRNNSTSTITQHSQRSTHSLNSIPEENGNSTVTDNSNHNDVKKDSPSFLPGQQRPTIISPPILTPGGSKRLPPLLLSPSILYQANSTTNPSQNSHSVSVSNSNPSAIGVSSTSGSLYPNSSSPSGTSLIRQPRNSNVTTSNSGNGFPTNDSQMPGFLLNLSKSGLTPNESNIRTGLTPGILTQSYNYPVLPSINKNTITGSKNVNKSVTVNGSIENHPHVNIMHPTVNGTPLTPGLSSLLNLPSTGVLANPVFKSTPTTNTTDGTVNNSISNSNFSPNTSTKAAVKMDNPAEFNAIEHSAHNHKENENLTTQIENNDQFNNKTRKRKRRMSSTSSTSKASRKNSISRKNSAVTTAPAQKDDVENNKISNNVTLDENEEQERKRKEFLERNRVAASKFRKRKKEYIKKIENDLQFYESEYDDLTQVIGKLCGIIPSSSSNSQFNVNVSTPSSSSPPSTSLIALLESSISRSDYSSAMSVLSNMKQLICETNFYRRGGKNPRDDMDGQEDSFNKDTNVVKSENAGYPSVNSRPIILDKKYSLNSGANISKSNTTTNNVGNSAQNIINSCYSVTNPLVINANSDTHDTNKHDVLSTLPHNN
Test: PBM E-score (8-mer binding enrichment) (E-score (-0.5 to 0.5)); higher = stronger / more preferred TF binding; most listed sequences are background and not binding sites
Settings: protein concentration: 200 nM; construct: GST-full length
Method: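 Universal 'all 10-mer' protein binding microarrays (Agilent AMADID 015681) probed with GST-tagged S. cerevisiae TFs (full-length or DBD) made by in vitro transcription/translation (PURExpress), about 100-200 nM. Bound TF was detected with fluorescent anti-GST. Each ungapped 8-mer (which stands for itself and its reverse complement) is scored by the PBM enrichment score (E-score), a modified Wilcoxon-Mann-Whitney statistic from -0.5 to +0.5, computed with the Universal PBM Analysis Suite. Scale: above 0.35 generally sequence-specific binding.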

Sequence	PBM E-score
ATAGGGAA	-0.133
GGCACTCA	-0.321
ATGGCTCG	-0.0717
CAGCATGC	-0.0382
CTCACTCA	-0.158
TGCGCGCA	0.0711
ATCCTTCC	-0.244
CGACAAGA	-0.0778
CACCGCTG	-0.271
AGAACTAC	0.0945
GAAGCCAA	-0.108
ATTAATGC	0.0872
CGCAAAGA	0.0514
ATGGATCG	-0.0172
GCTGCTCA	-0.0507
CACAAGAG	-0.0994
GAATGCAC	0.0579
ACCCGCTC	-0.364
TAAGATTA	0.0917
CTCGACGC	0.123
CCATCTAC	-0.0274
CCAGATGG	-0.174
CGGAAATC	-0.0803
CTGTACAC	0.0671
ACGTTCAC	0.28

Sequence	PBM E-score
ACTATAGC	-0.228
ACCACCGC	-0.218
CAATTACA	0.167
CATAGAGA	0.0951
CCGGACAG	-0.137
CCCGCCTC	-0.248
CCCGGAAG	-0.344
AATGGCAA	0.0404
AGACGCTA	-0.151
ATATTAGC	0.18
ATAGCGGC	-0.119
AGGTCACG	0.0716
GGTAGGAC	-0.245
CCTAGCAC	-0.191
AATGACAC	0.258
TAGAGATA	0.099
CCGACGTC	0.309
CTGGGCAC	-0.169
CATACTAA	0.091
CTATTCTC	-0.16
ACTGATAA	0.0569
ACTCCTCT	-0.174
ATCTGTCC	-0.319
CGGCTTAC	-0.0277
AAGGAAAT	0.0765

Sequence	PBM E-score
CGCAGCAG	-0.122
GTGCCGAA	0.0597
AGGCAGGA	-0.184
CGAGAGTC	-0.189
AGTTGTAC	-0.116
AAGAACAG	0.0348
CCATGGAG	-0.266
CAAAGAAG	-0.00535
GACAGCAC	-0.0572
AGCGGGTC	-0.376
GACAGAAA	0.135
GCACATTA	0.111
AACTCGCA	0.053
AGGAGGGG	-0.109
AAATTGAA	0.192
CTCACGAA	0.138
AAGAGAAC	0.0447
ATATGGGA	-0.158
CCTAGCCA	-0.108
GATACTCC	-0.0688
AGCGAATC	0.0742
CAGTATAA	-0.00767
AAACAGTC	-0.134
GCCTAGAC	-0.174
CGAGTCGA	-0.122

Sequence	PBM E-score
TCGTTTCA	0.0611
ACATTGCC	-0.177
CGGGAGAG	-0.313
CTTGACGA	0.17
GATACCAA	0.0663
CATCGCGC	0.048
CTCGCAAC	-0.00447
GCCTACGC	0.123
AATAATAG	0.111
ACGTGGTA	0.391
CAAAAAAG	0.19
AAAGTATG	0.0567
CCCACGCA	0.109
ATTAATCC	0.0871
TCTGCTAA	-0.0687
AGTTAATG	0.301
ACGTGGTC	0.364
CTTGCTAC	-0.045
ACTGGATA	0.0924
AACCCCGT	-0.155
ACACTTAA	0.184
ATGTAGGG	-0.129
AGGAACCC	-0.32
ACCGCACT	-0.0608
CCTATTTA	-0.0505

Sequence	PBM E-score
CAACAGGA	-0.134
AATAACAG	0.133
AGTCGAAG	-0.149
ATACCCGC	-0.0101
CTACGGGA	-0.117
ACCTCGCT	-0.14
CTTAAGGA	-0.212
ATGCTCTC	-0.291
ACGTGGCG	0.368
GTTCGAAC	0.0349
AGGTGCGG	-0.218
TATATAGA	0.229
ATCGAAAG	0.0369
GGTGCACA	-0.0357
AAACATTT	0.0986
AAGACAGA	0.0638
CGTTAGAC	0.122
ATTCGCAC	0.046
AGGCCGCG	-0.197
CAAACTCG	-0.104
AGTATGAG	0.129
ACCGGAAT	-0.209
GAACGGAA	-0.17
CAAATGAG	0.0267
GATAGAGA	-0.084

Sequence	PBM E-score
CGGATGCC	-0.0959
AATATTGG	-0.0283
AAAACGAA	0.157
AGCCCGTC	-0.06
AATGGTTG	-0.00536
ACAGACGT	0.301
GCCACCCC	-0.268
CACATATA	0.188
CATTGATA	0.00658
TGAAGTCA	0.0809
GCCTATTA	0.0771
CACGACAG	-0.0151
CCCTGGAC	-0.188
CATGAACA	0.0599
AATTCTCC	-0.127
ACCACTAA	0.237
AAGGTGGT	-0.106
ACGACAAT	0.208
ATTAGAGA	0.126
CGAACAAG	-0.0925
CCAGTCAG	-0.25
GCATGATA	0.0908
AGTGTGTC	0.104
ACACCCGT	-0.176
GTCCGAAA	0.114

Sequence	PBM E-score
GGGCTATA	-0.237
CGCAAGGA	0.0747
CGCGGAGC	-0.201
CATAGTGC	0.111
GGTTTGAA	0.00149
AAGTTAGC	0.027
ATATTCCG	-0.0674
TGTGCACA	0.0883
GCAGACGA	-0.0891
CCGTTAGA	0.00854
CAACGTAG	0.354
ATACGACG	0.234
CGCTCTTA	0.112
CTGACCCA	-0.172
GCGGCACC	-0.221
GCTGCGAC	-0.0513
GCAAGTTA	-0.00746
CCCGTTGC	-0.174
AACTGTTC	-0.179
ACGCGCAG	0.154
GAAATCGC	-0.057
CCCCCTAG	-0.346
GATACCCC	-0.186
ACTCATCT	0.0336
CAATTCGG	-0.0702

Sequence	PBM E-score
CTGGAGAA	-0.324
AATCCAGC	-0.0959
CCACACTA	0.0555
CCTATGTC	-0.0206
AGCCCCAA	-0.23
CTGAATAC	0.15
TCATGCAA	0.08
AAGTCGAT	-0.128
CAGAAAAG	0.0471
AAATCTCC	-0.23
CAGATAGG	-0.101
AGCGATAC	0.0619
AACTCACT	-0.148
CGGCTAGC	-0.23
TCCCCGCA	-0.0758
AGTCTTGG	0.0188
CATTGGCA	-0.0861
GGCCAAAC	-0.119
AAGAACAT	0.13
CAAAGTTG	0.037
CACATCGA	0.0208
GTCCGAGA	0.0404
AAGGGGAT	-0.0404
ATATTCGC	0.168
AATAGTCG	-0.0133

Sequence	PBM E-score
GCGAGCCC	-0.28
CGGTAACA	0.103
CCTAGATA	-0.227
GCCCGTGA	-0.154
AAGAGGCG	-0.0776
AGAGCCAC	-0.214
AAGCACTT	-0.0485
CTGTAGGA	-0.103
CGTGACCA	-0.0216
GCCTAGCC	-0.205
AGCTCATA	0.177
AGCATTGA	0.0274
TTCGTAAA	0.32
AGGGAGCA	-0.338
ACACAACT	0.021
AGTGCGCG	-0.0114
GTGATCAA	0.189
ATGTTACC	0.103
CTAATGAG	-0.138
CCGCACGA	-0.0576
ATAGCACG	-0.0293
AAGGTATT	0.131
CCCATGAC	0.29
CAATAGTC	-0.085
AAAACGTT	0.207

Sequence	PBM E-score
ACCGGATA	-0.0414
CCTCAAGC	-0.248
GGCAGGCA	-0.261
GTGGACTA	0.0315
GTGCGGGA	-0.0866
ACGCGCCT	0.104
CAAATAAA	0.101
AAGCGGTG	-0.19
AACGGCTG	-0.249
AAATTGGC	-0.00929
CCATACAC	-0.0195
AAGCCACG	0.0746
AGCGCGAG	-0.178
TAATCCGA	0.192
CTTAAAAG	-0.0915
CGAGATAG	-0.0941
ATTCGCAG	0.133
ACAAGGAG	0.0965
AAGTTAGA	-0.03
ACAAGATG	-0.0878
ACTATCTG	-0.0654
AAGTGCAT	0.196
CCCTCCAA	-0.136
AGGCTCAT	-0.232
ACCAGAAA	-0.0412

Sequence	PBM E-score
ACAGAAAT	0.037
TCGAAGAA	0.0891
ACCTGTAA	-0.0978
CCCAGTAA	-0.0661
GCGTTAAC	0.0751
CTTTATGC	-0.0461
ACATCGAG	-0.0809
TTGTAAAA	0.133
CGGGAGGC	-0.217
ATTGGATC	-0.0341
TGGTACAA	0.00028
ACTAATCC	-0.0743
GCCTGCCC	-0.24
TATTATGA	0.255
CTGAGTTA	-0.0647
AACCGCGG	-0.0169
AAGCGCCT	-0.233
GAGGGCCC	-0.403
CACTTTGA	-0.0608
GCATTGGC	-0.115
TAGGCATA	-0.0703
CGAATTTA	0.239
ACCCCTGC	-0.297
GCAATGTA	0.0506
AGCCAACA	-0.00051

Sequence	PBM E-score
AGAGCGAT	-0.16
ATCTCAGG	-0.0616
AGGGTGGG	-0.0285
ACGCGTGC	0.201
ACCAAAGC	-0.0679
ATGATTTG	0.0744
CATGTTAG	0.0472
AGCCGGCA	-0.306
GCACGTCA	0.477
CCTACAAC	0.13
GCCACACC	-0.0462
ATCACGTA	0.465
ATTTGTAG	0.143
AAGTAATG	0.0878
CGGACGGC	-0.0445
AGTTCGCC	0.0562
ATGTGGCA	-0.0362
AATGCTAG	-0.141
AAGCGATA	-0.00191
CGGAGATC	-0.174
CAACTCTA	-0.0906
ACCTTATG	0.0351
GTCAATAA	0.179
TATGATGA	0.317
CGCTACAA	-0.0792

Sequence	PBM E-score
AAGTTTTG	-0.0133
CGAAACGA	0.141
GCGGGCGA	-0.0617
AGATCTAC	0.116
ATAGATGC	-0.0292
CAGTCGGA	-0.216
CTGAGTGC	-0.109
CTTGGTTA	-0.066
CTACTAAA	0.0411
GACCCGTA	-0.191
CCGGGCCA	-0.297
GTAAAGCA	0.205
ATAAATAC	0.23
AAATAATC	0.163
ACGCGTTC	0.104
TGGGCAAA	-0.124
CGACTCCG	-0.285
AAAGCGCA	-0.19
CTAAAATA	0.143
GAGCCATC	-0.153
CCACGAAA	0.0267
CCCTCCCG	-0.172
AACTCCCG	-0.134
TTACTCAA	0.108
CATGCCAA	-0.0243

Sequence	PBM E-score
ATGAAAGA	0.0579
ACTCGGCC	-0.151
CTTCCCCC	-0.194
ATGCATAC	0.158
AGCCATAG	-0.215
AGTGGTGA	-0.0664
ACAAAACA	0.117
CCGGACGC	-0.117
ATGTAGTG	0.0795
CTCACAGA	0.00688
GTTATAAA	0.288
GTTAGTAA	0.156
AAGACTTG	-0.0457
AGTTGCAG	-0.119
ACTTGATA	0.122
CTGCGCCC	-0.249
CCTTTACC	-0.315
CGATTGCG	0.287
AAGCTCCC	-0.344
